Measurements from PubChem BioAssay AID652104 (National Center for Advancing Translational Sciences (NCATS), 2013).
Among all 410,000 compounds or so, about 7,200 (1.8%) were called active. This list was built around the results that the source calls inconclusive (neither active nor inactive); the mix of calls is not that of the screen. Calls come from the whole dose curve; as a rule, active = well fitted activation curve with a large enough effect; inconclusive = small, poorly fitted or top-dose-only effect, or another doubt; inactive = no such curve, though single readings can be large or run the other way. Potencies of inconclusive entries are left out as doubtful fits.

experiment: qHTS of TDP-43 Inhibitors; conditions: TDP-43 expressing yeast growth rescue, BacTiter-Glo, 24 h; growth rescue (activation): at 46.1 µM (top of the series) unless noted; note: nearly all actives have a fitted effect of over 50% in size; for growth rescue (activation): % of control where 0% means no effect
Method in brief: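 Luminescence from BacTiter-Glo reports growth of TDP-43-expressing yeast after 24 hr at 30 deg C with compound. Cells were raffinose-pregrown to mid-log, then seeded in galactose medium at OD600=0.02.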
Potency is the fitted concentration of half-maximal effect; tags give direction and shape of the fitted curve.

Row | Structure (SMILES) | Potency | growth rescue (activation)
1 | CCOC(=O)c1ccc(NC(=O)c2nc[nH]c2C(=O)N[C@@H](C)C(=O)OC(C)(C)C)cc1 | active: 28.2 µM | 
2 | O=C(C(=O)N1CCN(c2ccccc2Cl)CC1)c1c[nH]c2ccccc12 | active: 22.4 µM | 
3 | CC(C)c1ccc(-c2cc(C(=O)N3N=C(C(F)F)CC3(O)C(F)F)c3ccccc3n2)cc1 (stereo not given) |  | inactive: -85.3%
4 | COc1ccc(S(=O)(=O)c2cnc3ccc(OC)cc3c2N2CCC3(CC2)OCCO3)cc1 | inconclusive [activator, single point] | 
5 | COc1ccc(-c2cc(C)no2)cc1S(=O)(=O)N1CCCCC1 | inconclusive [activator, partial curve] | 
6 | Cc1nc(N2CCN(c3ccccn3)CC2)c2c(C)c(C(=O)N3CCN(c4cccc(Cl)c4)CC3)sc2n1 | inconclusive [activator, single point] | 
7 | CCc1nnc(NC(=O)CSc2nnc(Cc3cc(=O)[nH]c(=O)[nH]3)n2-c2ccc(OC)cc2)s1 |  | inactive: -11.6%
8 | COc1ccc(-c2ccc(C(=O)NCCN3CCOCC3)c3occc23)c(C)c1 |  | inactive: -17.6%
9 | CCOC(=O)c1oc2ccc(/C=N/O)c(Cl)c2c1C | inconclusive [activator, full curve] | 
10 | COc1ccc(-c2oc3c(c2C#CC2(O)CCCCC2)C(OC)CCC3)cc1 (stereo not given) | inconclusive [activator, partial curve] | 
11 | COc1ccc(CNC(=O)Nc2nc(C(N)Cc3ccc(C(F)(F)F)cc3)cs2)cc1 (stereo not given) | inconclusive [activator, partial curve] | 
12 | O=C(COc1ccccc1)NS(=O)(=O)c1ccc(Cl)cc1 |  | inactive: 21.5%
13 | COc1cccc(Nc2c3c(nc4nncn24)CCC3)c1 | inconclusive [activator, partial curve] | 
14 | FC(F)Sc1ccc(NC(=S)NCc2ccccc2)cc1 | inconclusive [activator, partial curve] | 
15 | COc1ccccc1/C=C/C(=O)OCC(=O)NC1CCCCCCC1 | inconclusive [activator, single point] | 
16 | O=C(CSc1nc2ccccc2nc1Cc1ccccc1)N1CCCCC1 | inconclusive [activator, single point] | 
17 | COc1ccc(CC2(C)OC(c3ccc(Cl)cc3)=NN2C(C)=O)cc1 (stereo not given) | inconclusive [activator, single point] | 
18 | CC(=O)C(=Cc1ccc(Cl)cc1)C(=O)c1ccccc1 |  | inconclusive: -82.4% [activator]
19 | Cc1csc(SCC(=O)Nc2nc(-c3ccccc3)cs2)n1 | active: 14.1 µM | 
20 | CC(C)Oc1ccc(/C(O)=C2/C(=O)C(=O)N(CCN(C)C)C2c2ccco2)cc1 (stereo not given) | inconclusive [activator, single point] | 
21 | Cn1nc(-c2ccccc2F)c2cc(C(=O)N3CCN(c4ccc(F)cc4)CC3)sc21 | inconclusive [activator, partial curve] | 
22 | O=C(OCCOc1ccccc1Cl)c1ccc(-n2cnnn2)cc1 | inconclusive [activator, full curve] | 
23 | Cc1ccccc1-n1c(-c2ccoc2C)n[nH]c1=S | inconclusive [activator, single point] | 
24 | Cc1cc(C)c(OCC(=O)OC(C)C(=O)N2CCc3ccccc32)c(C)c1 (stereo not given) | active: 22.4 µM | 

Row | Structure (SMILES) | Potency | growth rescue (activation)
25 | COc1ccc(S(=O)(=O)N2CCCC2)cc1NC(=O)c1ccccc1F |  | inactive: 4.72%
26 | O=C(c1cccs1)N1CCC(C(=O)N2CCN(Cc3ccc4c(c3)OCO4)CC2)CC1 |  | inactive: -3.6%
27 | O=S(=O)(Nc1ccc(N=Nc2ccccc2)cc1)c1ccccc1 |  | inconclusive: -90.8% [activator]
28 | CC(=O)N1Cc2ccccc2C(C)CC12CCCCC2 (stereo not given) | inconclusive [activator, partial curve] | 
29 | O=c1[nH]c2ccccc2n1CCCSc1cnc2ccccc2n1 | inconclusive [activator, single point] | 
30 | COCCn1c(C)cc(O)c(C(c2ccc(C)cc2)N2CCCCC2)c1=O (stereo not given) |  | inactive: 6.1%
31 | CC(=O)N1c2ccccc2C(=O)C1N1CCN(c2cccc(C(F)(F)F)c2)CC1 (stereo not given) | inconclusive [activator, partial curve, poor fit] | 
32 | c1ccc2c(Nc3nc(-c4ccncc4)nc4ccccc34)cccc2c1 |  | inactive: 2.18%
33 | C/C(=N\NC(=S)NCc1ccccc1)c1ccc(C)o1 | inconclusive [activator, single point] | 
34 | CNC(=S)/N=C/NOCc1ccc(Cl)cc1Cl | active: 10 µM | 
35 | Cc1ccc(/C=C/C(=O)N2CCCC(C)C2)cc1 (stereo not given) | inconclusive [activator, partial curve, poor fit] | 
36 | O=C(C1CCC1)N1CCCc2cc(S(=O)(=O)Nc3ccc(F)cc3)ccc21 |  | inactive: 18.6%
37 | COc1ccc(OC(=O)c2cnn(-c3ccccc3)c2C)cc1 | inconclusive [activator, single point] | 
38 | CC1(C)C(C(=O)OCC(Cl)(Cl)Cl)N2C(=O)C(NC(=O)Cc3ccccc3)C2S1=O (stereo not given) |  | inactive: -5.71%
39 | Cc1nc2sccn2c(=O)c1S(=O)(=O)NCc1ccc(F)cc1 |  | inactive: 20.1%
40 | COc1ccc(Cl)cc1NC(=O)c1cc2ccc3ccc(C)[nH]c3c2n1 | inconclusive [activator, partial curve] | 
41 | Cc1cccc(C)c1OCC(=O)Nc1cc(Cl)ccc1-n1cncn1 | inconclusive [activator, single point] | 
42 | COc1ccc(/C(N)=N/OC(=O)c2ccco2)cc1OC | inconclusive [activator, partial curve] | 
43 | O=C(/C=C1\NC2(CCCC2)Cc2ccccc21)C(=O)N/N=C/c1ccccc1O | inconclusive [activator, single point] | 
44 | C[C@H]1C=C(C(=O)N2CCOCC2)O[C@@H](OCc2ccc(CO)cc2)C1 | inconclusive [activator, partial curve] | 
45 | CC(C)(C)OC(=O)N1CCC(c2c(C(=O)N3CCN(c4ccc(Cl)cc4)CC3)cnn2-c2ccc(F)cc2F)CC1 | inconclusive [activator, partial curve, poor fit] | 
46 | COc1ccc(C2=NOC(Cn3nc(C(=O)NCc4cccs4)cc3-c3ccccc3)C2)cc1 (stereo not given) | inconclusive [activator, partial curve] | 
47 | Cc1ccc(OCC(=O)OCc2cc(=O)n3nc(-c4cccs4)sc3n2)cc1 |  | inactive: -5.31%
48 | CCC(C)OC(=O)c1[nH]c2c(c1C)C(=O)CC(c1ccc(N(C)C)cc1)C2 (stereo not given) | inconclusive [activator, single point] | 

Row | Structure (SMILES) | Potency | growth rescue (activation)
49 | COCc1nnc(NC(=O)c2ccc(S(=O)(=O)N3CCCc4ccccc43)cc2)o1 | inconclusive [activator, partial curve] | 
50 | COc1ccc(-c2[nH]ncc2N=Nc2ccccc2)cc1 | inconclusive [activator, single point] | 
51 | COC(=O)c1ccc2[nH]c(C3(O)CCCCC3)c(C)c2c1 | active: 17.8 µM | 
52 | Cc1ccc(-c2nc3ccc(Cl)cn3c2Cc2cccc(F)c2)cc1 | active: 14.1 µM | 
53 | CCCc1ccc(C(=O)NNc2ccccc2F)cc1 | inconclusive [activator, partial curve] | 
54 | O=C(NCc1ccco1)C1CCCN1C(=O)Nc1ccccc1 (stereo not given) | inconclusive [activator, partial curve] | 
55 | Cc1cc(OCC(=O)N(C)Cc2ccccc2)ccc1Cl | active: 11.2 µM | 
56 | Nc1ncnc2c1ncn2[C@@H]1O[C@H](C(=O)N(CCC2=CCCCC2)CC2CC2)[C@@H](O)[C@H]1O | inconclusive [activator, full curve, poor fit] | 
57 | COC(=O)c1ccc(NC(=O)CSc2cn(CC(=O)N3CCCCCC3)c3ccccc23)cc1 |  | inactive: 15.8%
58 | COC(=O)c1ccc2c(c1O)C(=O)c1ccccc1C2=O | active: 7.94 µM | 
59 | Cc1c(C2(O)CCCCC2)[nH]c2ccc(C(F)(F)F)cc12 | active: 3.55 µM | 
60 | COc1ccc(S(=O)(=O)N(C)C[C@H]2Oc3ccc(NS(=O)(=O)c4ccccc4)cc3C(=O)N([C@H](C)CO)C[C@@H]2C)cc1 |  | inactive: 4.2%
61 | N#Cc1nc(-c2ccco2)oc1N1CCN(c2ccccc2)CC1 | inconclusive [activator, single point] | 
62 | CN(C(=O)c1sc2nc(N3CCCC3)c3c(c2c1N)CC(C)(C)OC3)c1ccccc1 | inconclusive [activator, single point] | 
63 | Cc1ccc(/C=N/NC(=O)c2cccs2)cc1[N+](=O)[O-] | inconclusive [activator, full curve] | 
64 | O=C(NC(Cc1ccccc1)C(=O)N1CCN(c2ccc(F)cc2)CC1)c1ccccc1 (stereo not given) |  | inactive: 4.77%
65 | CCOc1ccc(/C=N/OCC(=O)NCc2cccs2)cc1 | active: 11.2 µM | 
66 | O=C1CCCC(=O)C1C(c1ccc(Cl)cc1)C1C(=O)CCCC1=O | inconclusive [activator, partial curve] | 
67 | COc1cccc(OC)c1C(=O)Nc1ccc2nc(C)c(C)nc2c1 | inconclusive [activator, partial curve, poor fit] | 
68 | CN(Cc1ccccc1)C(=O)CN1C(=O)c2ccccc2C1=O | inconclusive [activator, partial curve] | 
69 | COc1ccc(C(=O)/C=C2\C(=O)Nc3ccc(Br)cc32)cc1 | inconclusive [activator, single point] | 
70 | O=C(/C=C/c1ccco1)NC(=S)Nc1ccccn1 | inconclusive [activator, single point] | 
